{"source": "PubChem BioAssay AID1347416", "about": "(National Center for Advancing Translational Sciences (NCATS), 2020)", "note": "The campaign covered roughly 4,100 compounds. About 1,600 (39%) were called active. Inconclusive results, whose numbers are uncertain, are shown with a selection of clear calls. The call rests on the fitted dose curve; in most records, active means well fitted inhibition curve with a large enough effect; inconclusive means small, poorly fitted or top-dose-only effect; inactive means no such curve, though single readings can be large or run the other way. Potencies beside an inconclusive call are fits to weak or partial responses and may not hold up. On the % scale 0 is the no-effect control and ±100 the full control effect; potency means the concentration at half of the fitted maximal effect; tags describe the fitted curve by direction and shape."}
{"assay": "qHTS Validation assay for Inhibitors of Plasmodium falciparum Dd2 growth in vitro; further: nearly all actives have a fitted effect of over 70% in size", "conditions": "P. falciparum Dd2 in RBCs, SYBR Green growth, 72 h; activity change, negative = inhibition: at 28.7 µM (top of the series) unless noted", "summary_of_the_method": "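P. falciparum Dd2-infected red blood cells (2.5% hematocrit, 0.3% parasitemia) grown 72 h at 37 °C under 5% O2 with compounds in a titration, 29 uM to 0.5 nM final. Growth read as SYBR Green-1 fluorescence after ~16 h lysis; artesunate 300 nM as positive control.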"}
{"compound": "COc1cc(NC(=O)Cn2c(N(C)Cc3ccccc3)nc(C)cc2=O)cc(OC)c1", "activity change, negative = inhibition": "inactive: -19.9%"}
{"compound": "COc1ccc(-n2nc(C)c([C@@H]3C=C[C@@H](NCc4ccc(F)cc4)C3)c2C)cc1", "Potency": "active: 1.37 µM"}
{"compound": "CCc1ccc2c(c1)C1(NN=C(c3ccc(C)cc3)S1)C(=O)N2", "note": "(configuration not stated)", "Potency": "inconclusive: 2.37 µM [inhibitor, single point]"}
{"compound": "O=C(NCC(c1ccco1)N1CCCC1)c1ccc(Cl)cc1", "note": "(configuration not stated)", "Potency": "inconclusive: 8.41 µM [inhibitor, partial curve]"}
{"compound": "COc1ccc(-c2[nH]ncc2CN2CCCN(S(=O)(=O)c3ccccc3)CCC(=O)NCC2)cc1", "Potency": "inconclusive: 16.8 µM [inhibitor, single point]"}
{"compound": "COc1ccc(Nc2cnc3ccc(-c4ccc(OC)c(OC)c4)nn23)cc1", "Potency": "active: 1.72 µM"}
{"compound": "O=C1NC(=NC2CCCC2)C2(CCN(CC3CC3)C2)N1c1cc(F)cc(F)c1", "note": "(configuration not stated)", "Potency": "inconclusive: 1.5 µM [inhibitor, full curve]"}
{"compound": "O=C1CCN(S(=O)(=O)c2ccccc2)CCCN(C(=O)C2(c3ccccc3)CC2)CCN1", "Potency": "inconclusive: 21.1 µM [inhibitor, partial curve, poor fit]"}
{"compound": "Cc1ccc(Oc2ccc(NC(=O)c3ccco3)cc2)cc1", "Potency": "active: 10.6 µM"}
{"compound": "COc1cc(CN2CC(=O)N(c3ccc(C)c(C)c3)C2=S)cc(OC)c1OC", "Potency": "inconclusive: 15 µM [inhibitor, partial curve]"}
{"compound": "COc1ccc(OC)c(-n2c(-c3ccn[nH]3)n[nH]c2=S)c1", "Potency": "inconclusive: 21.1 µM [inhibitor, single point]"}
{"compound": "CN(C)c1cc(=O)c2ccnc(-c3ccccc3F)c2o1", "activity change, negative = inhibition": "inactive: 0% [at 57.5 µM]"}
{"compound": "COc1ccc(-c2cc(N3CCCN(C(=O)c4ccc(C(C)(C)C)cc4)CC3)n[nH]2)cc1", "Potency": "inconclusive: 16.8 µM [inhibitor, single point]"}
{"compound": "CCc1ccccc1Nc1nn2c(=O)c3ccc(C(=O)NC(C)c4ccccc4)cc3nc2s1", "note": "(configuration not stated)", "Potency": "inconclusive: 15 µM [inhibitor, single point]"}
{"compound": "COc1cccc(CN2CCCC(NCc3cc(C)ccc3-n3cccn3)C2)c1", "note": "(configuration not stated)", "Potency": "inconclusive: 2.99 µM [inhibitor, full curve]"}
{"compound": "O=C1NCc2ccccc2CC12CCCCN2CC1CC=CCC1", "note": "(configuration not stated)", "Potency": "inconclusive: 2.34 µM [inhibitor, full curve]"}
{"compound": "COc1ccc(S(=O)(=O)N2CCc3cc(OC)c(OC)cc3C2)cc1", "activity change, negative = inhibition": "inactive: 22.2%"}
{"compound": "Cc1ccc(-c2nc(CN3CCCCC3)cc(CN3CCCCC3)c2O)cc1", "Potency": "inconclusive: 4.22 µM [inhibitor, partial curve, poor fit]"}
{"compound": "COc1ccc(N(C(=O)c2cccc(C)c2)S(=O)(=O)c2ccc(C)cc2)cc1", "Potency": "inconclusive: 0.0841 µM [inhibitor, full curve, poor fit]"}
{"compound": "CCc1c(C)[nH]c2ccc(C)cc2c1=O", "Potency": "inconclusive: 21.1 µM [inhibitor, single point]"}
{"compound": "CN(c1ccccc1)c1cc(=O)c2ccnc(-c3ccncc3)c2o1", "activity change, negative = inhibition": "inactive: 7.74% [at 43.1 µM]"}
{"compound": "CCOC(=O)c1ccc(N2C(=O)c3[nH]nc(-c4ccc(OC)cc4)c3C2c2cccc(O)c2)cc1", "note": "(configuration not stated)", "Potency": "inconclusive: 13.3 µM [inhibitor, partial curve, poor fit]"}
{"compound": "COc1ccccc1N1CCN(C(=O)c2cc3c(=O)n(C)c4ccccc4c3s2)CC1", "Potency": "inconclusive: 5.31 µM [inhibitor, partial curve, poor fit]"}
{"compound": "CCOc1ccc(/C=C/C(=O)Nc2ccc3nc(N(CC)CC)cc(C)c3c2)cc1OC", "Potency": "active: 1.88 µM"}
{"compound": "COc1ccc2[nH]c3c(c2c1)CCNC31CCN(Cc2ccc(F)cc2F)CC1", "Potency": "inconclusive: 21.1 µM [inhibitor, single point]"}
{"compound": "O=C(NCCc1ccc(Cl)cc1)c1nc(-c2cccnc2)c2cnccn12", "Potency": "inconclusive: 21.1 µM [inhibitor, single point]"}
{"compound": "COCCN1CCCCCC(O)c2cc(C(=O)N3CCN(c4ccc(F)cc4)CC3)ccc21", "note": "(configuration not stated)", "Potency": "inconclusive: 21.1 µM [inhibitor, single point]"}
{"compound": "CC1=C(C(=O)Nc2ccc(C)cc2C)C(c2ccc(Br)cc2)n2ncc(C(=O)Nc3cccc(C)c3)c2N1", "note": "(configuration not stated)", "Potency": "active: 3.35 µM"}
{"compound": "Cc1ccc(CNC(=O)CN2CCN(Cc3ccc(F)cc3Cl)C2=O)cc1", "activity change, negative = inhibition": "inactive: 24.2%"}
{"compound": "Cc1cccc(NC(=O)N2CCC(Cc3nc(-c4ccccc4)n[nH]3)CC2)c1", "Potency": "inconclusive: 16.8 µM [inhibitor, single point]"}
{"compound": "CCOC(=O)C1CCN(c2ncnc3c2c(-c2ccccc2)cn3-c2ccc(Cl)cc2)CC1", "Potency": "inconclusive: 21.1 µM [inhibitor, partial curve, poor fit]"}
{"compound": "COc1cccc(NC(=O)CN(C)C(=O)c2ccc(-c3ccc(Cl)cc3)o2)c1", "Potency": "active: 4.22 µM"}
{"compound": "O=C(N/N=C/c1cc(Br)ccc1O)c1ccncc1", "Potency": "inconclusive: 9.44 µM [inhibitor, partial curve]"}
{"compound": "COc1ccc(NC2=NC3(CCCCC3)N=C(N)N2)cc1", "Potency": "inconclusive: 13.3 µM [inhibitor, single point]"}
{"compound": "O=C(NC1CCCCC1)c1n[nH]c2c1CCCCC2", "Potency": "inconclusive: 21.1 µM [inhibitor, single point]"}
{"compound": "O=C([C@@H]1C[C@H](Oc2ccccc2)CN1C(=O)c1cc2ccccc2[nH]1)N1CCCC1", "activity change, negative = inhibition": "inactive: -12.6%"}
{"compound": "CC1C=CC(C)N1c1ncnc2c1CN(C1CCNCC1)C(=O)CN2C", "note": "(configuration not stated)", "Potency": "inconclusive: 16.6 µM [inhibitor, single point]"}
{"compound": "Cn1cccc1CN1CCCC2(C1)C(=NC1CCCCC1)NC(=O)N2c1cccnc1", "note": "(configuration not stated)", "Potency": "inconclusive: 5.31 µM [inhibitor, partial curve]"}
{"compound": "CN1N=C2c3ccccc3CCC2C1c1ccc(F)cc1", "note": "(configuration not stated)", "Potency": "active: 5.96 µM"}
{"compound": "O=c1c(-c2ccc(Br)cc2)coc2c(CN3CCCCC3)c(O)ccc12", "Potency": "active: 2.11 µM"}
{"compound": "COc1ccc(CNc2ncnc3cc(OC)c(OC)cc23)cc1", "Potency": "inconclusive: 21.1 µM [inhibitor, single point]"}
{"compound": "CCN(CC)S(=O)(=O)c1ccc(NC(=O)CCc2c(C)nc3cc(-c4ccc(Cl)cc4)nn3c2C)cc1", "Potency": "active: 4.73 µM"}
